The values that follow come from the supplement of paper PMC11417369.

Some of the results follow.

The experiment relates to PfHDP1 homeodomain (GST-tagged). The experiment in a line: gcPBM binding intensity (ln(normalized median fluorescence intensity)); higher = stronger DNA binding. In short, it runs like this:
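Binding intensity is the highest Masliner-normalised natural-log median intensity over replicate spots in either probe orientation. To obtain it, GST-tagged P. falciparum DNA-binding domains made in E. coli were incubated for 1 h on an Agilent 4 × 180k array of primer-extended double-stranded 36-bp intergenic genomic probes plus negative controls. Detection used Alexa488 anti-GST antibody with scanning at 488 nm.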
For “TTTAATTTTTATATAACACACATATTGGAATTATGT [CACACA_site734]”, the “gcPBM binding intensity (ln)” value stood at 6.43.

For the sequence “TTATGTATTACCTGCCGTACTTCTAAAATAATTAAA [XGTACX_site1716]”, the “gcPBM binding intensity (ln)” value turned out to be 6.67.

Consider “TTAAATGTGAAGTGAATACACACCTAATAAATATAA [CACACA_site3194]”, for which the “gcPBM binding intensity (ln)” value worked out at 6.34.

As to “TTTTTTACATACAGAAATATATAATATAAAATAAAT [GTGCAC_negctrl_site278]”, the “gcPBM binding intensity (ln)” value amounted to 6.25.

As to “ATATATTTTTAATTTGCATGTAGTAAAGCCTTAAAT [TGCATGCA_site593]”, the “gcPBM binding intensity (ln)” value came out at 6.55.

For the sequence “CATCAAGTGAATTGTTGTACTTTACATTGTTTTTAT [XGTACX_site7261]”, the “gcPBM binding intensity (ln)” value came out at 6.76.

Consider “ATGTTGTACAGACACACACACAAAAAAAAAATAAAA [CACACA_site7184]”, for which the “gcPBM binding intensity (ln)” value was determined as 6.72.

Turning to “ATATATATATATATATGTACATACATACAATCATAT [XGTACX_site6410]”, the “gcPBM binding intensity (ln)” value was 9.3.

On to “TATAAATTTTGTTTAGCACACACACCGACATACATA [CACACA_site9033]”, for which the “gcPBM binding intensity (ln)” value was found to be 7.12.

For “TATAATAGCTTCTTTACACACACCATTTTTTTTTTT [CACACA_site1456]”, the “gcPBM binding intensity (ln)” value came to 6.77.

For the sequence “CTTACATATTACATATGTACATATACACCTTATGTC [XGTACX_site4679]”, the “gcPBM binding intensity (ln)” value worked out at 6.75.

On to “TATAATATGTTATATACACACATTATAAAATACACA [CACACA_site6742]”, for which the “gcPBM binding intensity (ln)” value is 6.85.

As for “AAAAAAAAAATTAATTGTACTAAAAAAATATTATAT [XGTACX_site8903]”, the “gcPBM binding intensity (ln)” value stood at 6.41.

Turning to “TAATAATAAATAAAATGTACATATGAACAAATAAGT [XGTACX_site6710]”, the “gcPBM binding intensity (ln)” value is 7.2.

As for “TGTTTTCTTGATTATTGTACTTTAATTAGTAATATG [XGTACX_site8674]”, the “gcPBM binding intensity (ln)” value came to 6.69.

Take “TAAATACATTTATGTACACACACATAGATGTATATT [CACACA_site5618]”: the “gcPBM binding intensity (ln)” value came out at 6.37.

“TGAATATTCATGTGTGTGCGCATGTTGTTAGACCAT [GTGCAC_site9869]”: the “gcPBM binding intensity (ln)” value worked out at 7.39.

As to “AAAAATATTATAAGCACACATATATATATATATATA [CACACA_site2458]”, the “gcPBM binding intensity (ln)” value amounted to 9.59.

As to “TGTTACAAAAAATAATGTACTTAATATATATATATA [XGTACX_site1016]”, the “gcPBM binding intensity (ln)” value is 8.88.

On to “TATCTTCATTTTTTTGGTACGCACGCAAATATGGCT [XGTACX_site3107]”, for which the “gcPBM binding intensity (ln)” value stood at 6.69.

As to “ACTGTCATTTATTGTAGTACGTCAATTTATTACATT [XGTACX_site2749]”, the “gcPBM binding intensity (ln)” value was 6.48.

Turning to “GTAGGTTACAAAATGTGAGAGAAGCAAATATAGAAA [CACACA_negctrl_site1819]”, the “gcPBM binding intensity (ln)” value is 6.96.

As for “CATCACCTTTTTAAATGTACGCATAATACCAAAAAA [XGTACX_site1587]”, the “gcPBM binding intensity (ln)” value is 6.54.

Regarding “TTTTGTTTTTAGTTTATACACACCATATTAATATAA [CACACA_site3102]”, the “gcPBM binding intensity (ln)” value came out at 7.58.

For “TTGTATTAAAATCAAGTGCATATAATTTAAGTTCAT [GTGCAC_site9495]”, the “gcPBM binding intensity (ln)” value amounted to 8.32.

For the sequence “CTTTGGTTATAACACACATGCACACGTAAATAAATA [TGCATGCA_site976]”, the “gcPBM binding intensity (ln)” value stood at 9.14.

As to “ACTATTTTAAAAATATGTACATACGTTGTAATTTAA [XGTACX_site7999]”, the “gcPBM binding intensity (ln)” value was 6.67.

Take “TTTCCGGTAATATGGAAATATATGTGGGTTTTTTTT [CACACA_negctrl_site1536]”: the “gcPBM binding intensity (ln)” value was 6.41.

In the case of “CGAAGGATAAACATACGTACATATATGTGTATAATA [XGTACX_site779]”, the “gcPBM binding intensity (ln)” value worked out at 7.11.

With “TATATTTATAAATGAACACACACGCAATTTGAATCG [CACACA_site3370]”, the “gcPBM binding intensity (ln)” value was 7.05.

On to “CTGTATTTATTTTTCTGTACCAAATCACCCCTTGTA [XGTACX_site395]”, for which the “gcPBM binding intensity (ln)” value came to 6.74.

With “TTTCTTTTTCGATATACACACTGTATGTGTCTAAAA [CACACA_site6054]”, the “gcPBM binding intensity (ln)” value was found to be 6.49.

Regarding “GATGTATAAAATAATACATGCATGTCCTACATATAT [TGCATGCA_site155]”, the “gcPBM binding intensity (ln)” value was determined as 6.54.

With “TACGTTTTATGACACACACACAAAAAAAAAAAAAAA [CACACA_site7764]”, the “gcPBM binding intensity (ln)” value was determined as 6.37.

Turning to “TATAGCAAAATATTCACACAAACTATTAATAAAAGT [CACACA_site5795]”, the “gcPBM binding intensity (ln)” value came to 6.55.

For the sequence “AATGGTTATAATATATGTACATATAAATATACTGAA [XGTACX_site8533]”, the “gcPBM binding intensity (ln)” value turned out to be 6.6.

“AAAAAATACATCAAAAGAAACATATATATATATATA [GTGCAC_negctrl_site719]”: the “gcPBM binding intensity (ln)” value turned out to be 9.33.

As for “TTTTTTTTTTAGTATGAACACACATATATATTATAA [CACACA_site8957]”, the “gcPBM binding intensity (ln)” value came out at 6.49.

In the case of “TATAAAATAAATAACAAAAAAAATAAAATAAAAATA [TGCATGCA_negctrl_site297]”, the “gcPBM binding intensity (ln)” value worked out at 6.49.

As to “ATAAAACTTATTTAACGTACATATTTTATATACCTT [XGTACX_site5353]”, the “gcPBM binding intensity (ln)” value came to 6.41.

Take “TATAATAGTTCATAGGTGCAATATAATAAATTTATA [GTGCAC_site9573]”: the “gcPBM binding intensity (ln)” value was found to be 9.52.

Consider “AAAAAAAAAAAAAAAAGTACATGAAAAAAAGAAGAA [XGTACX_site8384]”, for which the “gcPBM binding intensity (ln)” value was found to be 6.68.

Regarding “TATCATATATTATAGCGTACTTATTTATTTATTTAT [XGTACX_site1676]”, the “gcPBM binding intensity (ln)” value was 6.78.

On to “ATATAAGTACCTATAACACACATATATTATAAGTAT [CACACA_site7281]”, for which the “gcPBM binding intensity (ln)” value came to 6.46.

With “TAGAATAAATTAATTACACACGGAATTATATATATA [CACACA_site1616]”, the “gcPBM binding intensity (ln)” value was found to be 7.23.

As for “ATAAATTAAAAACACACACACATCTGGATACCCCTA [CACACA_site5780]”, the “gcPBM binding intensity (ln)” value was found to be 6.8.

For “TTTTTATAAAAAATTTACACTATATGACAGAAGTAA [XGTACX_negctrl_site481]”, the “gcPBM binding intensity (ln)” value came to 6.33.

On to “TGTGTAAAAATCATGGGTACACATTTTGATACCAAT [XGTACX_site1779]”, for which the “gcPBM binding intensity (ln)” value worked out at 6.51.

Regarding “AATGAAAAGTAAAATACACACACATAATATAATTTA [CACACA_site8608]”, the “gcPBM binding intensity (ln)” value stood at 6.75.

Regarding “AAACTTGACGAACACACACACACATATATAAAAAAA [CACACA_site6494]”, the “gcPBM binding intensity (ln)” value worked out at 6.85.

Consider “AAGAAGAAACAAAACACACACAGTCTTCTTTTCTAT [CACACA_site3088]”, for which the “gcPBM binding intensity (ln)” value turned out to be 6.89.

For “GTATATGAATAATATTTTATGGTAATTTTTTTTTTT [XGTACX_negctrl_site512]”, the “gcPBM binding intensity (ln)” value was found to be 6.06.

Regarding “TACAGAATTGTATATAGTACATAAAACAATATATAT [XGTACX_site7275]”, the “gcPBM binding intensity (ln)” value came to 6.71.

For the sequence “AAAAAAAAAAAAAAGAGTACTCATATAAAAATATAA [XGTACX_site6551]”, the “gcPBM binding intensity (ln)” value came out at 6.2.

Regarding “GGTGGTAAAAAACCTGCATGTCGAAATATTAAATAC [TGCATGCA_site33]”, the “gcPBM binding intensity (ln)” value is 6.71.

In the case of “ATTTCTTTTTTTTTTTTTTTTAATGTAAAACATTTT [CACACA_negctrl_site1462]”, the “gcPBM binding intensity (ln)” value was determined as 6.38.
